Some of the results follow.
B1: PhoQ; a variant is named by its letters at X, in order, P23837 (parent)
chain: MKKLLRLFFPLSLRVRFLLATAAVVLVLSLAYGMVALIGYSVSFDKTTFRLLRGESNLFYTLAKWENNKLHVELPENIDKQSPTMTLIYDENGQLLWAQRDVPWLMKMIQPDWLKSNGFHEIEADVNDTSLLLSGDHSIQQQLQEVREDDDDAEMTHSVAVNVYPATSRMPKLTIVVVDTIPVELKSSYMVWSWFIYVLSANLLLVIPLLWVAAWWSLRPIEALAKEVRELEEHNRELLNPATTRELTSLVRNLNRLLKSERERYDKYRTTLTDLTHSLKTPLXXLQXXLRSLRSEKMSVSDAEPVMLEQISRISQQIGYYLHRASMRGGTLLSRELHPVAPLLDNLTSALNKVYQRKGVNISLDISPEISFVGEQNDFVEVMGNVLDNACKYCLEFVEISARQTDEHLYIVVEDDGPGIPLSKREVIFDRGQRVDTLRPGQGVGLAVAREITEQYEGKIVAGESMLGGARMEVIFGRQHSAPKDE

Variants of: B1
Assay: enrichment ratio after two sorts for PhoP signalling (ratio (wild type AVST 3.29)); higher = more functional
Settings: with PhoP (E. coli)

Row | Variant | enrichment ratio
1 | TLMQ | ≤ 0.25
2 | TTAK | 1.05
3 | NFTA | ≤ 0.25
4 | EYAP | ≤ 0.25
5 | GRTL | ≤ 0.25
6 | DYLT | ≤ 0.25
7 | LPYM | ≤ 0.25
8 | MHYY | ≤ 0.25
9 | IDHA | ≤ 0.25
10 | YTDF | ≤ 0.25
11 | YMAD | ≤ 0.25
12 | YAGG | ≤ 0.25
13 | MVEI | ≤ 0.25
14 | RYWH | ≤ 0.25
15 | NCGR | ≤ 0.25
16 | WFCI | ≤ 0.25
17 | WFHI | ≤ 0.25
18 | DPVD | ≤ 0.25
19 | FWES | ≤ 0.25
20 | SFLC | 4.52
21 | DVEI | ≤ 0.25

Row | Variant | enrichment ratio
22 | YNAK | ≤ 0.25
23 | YQML | ≤ 0.25
24 | LYKD | ≤ 0.25
25 | WRFK | ≤ 0.25
26 | QMLV | ≤ 0.25
27 | ICPY | ≤ 0.25
28 | GTPG | ≤ 0.25
29 | EQHK | ≤ 0.25
30 | YQVE | ≤ 0.25
31 | DARN | ≤ 0.25
32 | ITQS | ≤ 0.25
33 | FTYR | ≤ 0.25
34 | IMRS | ≤ 0.25
35 | GSTT | ≤ 0.25
36 | LGDG | 0.39
37 | VCKT | ≤ 0.25
38 | HRVA | ≤ 0.25
39 | RGPL | ≤ 0.25
40 | EIHH | ≤ 0.25
41 | RLRH | ≤ 0.25
42 | YQRY | ≤ 0.25

Row | Variant | enrichment ratio
43 | KPHH | ≤ 0.25
44 | TTWR | ≤ 0.25
45 | NMKV | ≤ 0.25
46 | DMTE | ≤ 0.25
47 | PENH | ≤ 0.25
48 | SGHS | ≤ 0.25
49 | NMGI | ≤ 0.25
50 | GNMW | ≤ 0.25
51 | MPLS | 0.298
52 | QDQV | ≤ 0.25
53 | VMFS | ≤ 0.25
54 | DDGC | ≤ 0.25
55 | QCLA | 3.62
56 | QWHH | ≤ 0.25
57 | DHDH | ≤ 0.25
58 | KVLM | ≤ 0.25
59 | PLQQ | ≤ 0.25
60 | FRIW | ≤ 0.25
61 | IKGI | ≤ 0.25
62 | NVHL | ≤ 0.25
63 | YHDG | ≤ 0.25

Row | Variant | enrichment ratio
64 | EFSS | ≤ 0.25
65 | VVQP | ≤ 0.25
66 | ELGD | ≤ 0.25
67 | VAEF | ≤ 0.25
68 | VQGC | ≤ 0.25
69 | SIVV | 2.38
70 | DIDG | ≤ 0.25
71 | WNTE | ≤ 0.25
72 | NVSY | ≤ 0.25
73 | IFPM | ≤ 0.25
74 | KMDV | ≤ 0.25
75 | VVCR | 0.281
76 | QIWI | ≤ 0.25
77 | IRDG | ≤ 0.25
78 | RSSK | ≤ 0.25
79 | PYVQ | ≤ 0.25
80 | ICLW | ≤ 0.25
81 | IHQE | ≤ 0.25
82 | GKER | ≤ 0.25
83 | DDGM | ≤ 0.25
84 | DQRA | ≤ 0.25

Reference: a collection of fitness landscapes (doi:10.1126/science.1257360)
